Experimental data published in the supplement of paper PMC12217912.
Some of the results follow. Sequences were assembled here from the parent chain. Values near 0.05 are background.

B1: TEV protease; numbered along this chain (parent)
chain: MGESLFKGPRDYNPISSSICHLTNESDGHTTSLYGIGFGPFIITNKHLFRRNNGTLVVQSLHGVFKVKDTTTLQQHLVDGRDMIIIRMPKDFPPFPQKLKFREPQREERICLVTTNFQTKSMSSMVSDTSCTFPSGDGIFWKHWIQTKDGQCGSPLVSTRDGFIVGIHSASNFTNTNNYFTSVPKNFMELLTNQEAQQWVSGWRLNADSVLWGGHKVFMVKPEEPFQPVKEATQL

Variants of: B1
Test: raw area under fraction-flipped curve 0-4 h after induction (AUC4h, not background-subtracted), DNA-recorder readout of cleavage of the substrate (dimensionless); higher = more cleavage of the substrate by the protease variant
Details: temperature: 34 °C; time window: 0-4 h after rhamnose induction
Experimental: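 In vivo DNA recorder in E. coli TOP10(DE3) ΔrhaA at 34 °C. Each TEVp single-site mutant (parent TEVp 0) is paired with a single-site variant of the 7-mer TEVs (canonical ENLYFQ|S). The substrate sits between flexible linkers in a Bxb1-sfGFP-TEVs-SsrA fusion, so cleavage stabilises Bxb1 and speeds flipping of a recombination array, read by NGS. The value is the raw area under the fraction-flipped curve over 0-4 h after rhamnose induction (AUC4h), with ≥20 reads per time point. It is not background-subtracted; inactive controls average about 0.047.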
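Note: Bxb1 expression induced with 0.2% (w/v) L-rhamnose at OD600 near 0.5, cultures sampled hourly, flipped fraction per protease–substrate barcode pair counted by paired-end Illumina sequencing.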

Row | Variant | area with substrate ENLYFQA | area with substrate ENLYFQC | area with substrate ENLYFQD | area with substrate ENLYFQE | area with substrate ENLYFQG | area with substrate ENLYFQH | area with substrate ENLYFQI | area with substrate ENLYFQK | area with substrate ENLYFQL | area with substrate ENLYFQM | area with substrate ENLYFQP | area with substrate ENLYFQQ | area with substrate ENLYFQR | area with substrate ENLYFQS | area with substrate ENLYFQT | area with substrate ENLYFQV | area with substrate ENLYFQW | area with substrate ENLYFQY | area with substrate ENLYFQF | area with substrate ENLYFQN
1 | F65W | 0.106 | 0.106 | 0.0526 | 0.0539 | 0.0784 | 0.0798 | 0.0589 | 0.0526 | 0.0722 | 0.106 | 0.055 | 0.118 | 0.0389 | 0.111 | 0.0644 | 0.0666 | 0.0484 | 0.0732 | – | –
2 | L73Y | 0.0771 | 0.0748 | 0.0606 | – | 0.0573 | 0.0632 | 0.054 | 0.0358 | 0.0466 | 0.0594 | 0.0587 | – | 0.0531 | 0.0708 | – | 0.054 | – | 0.0554 | 0.053 | 0.0521
3 | L73P | 0.063 | 0.0616 | 0.0513 | 0.0399 | 0.052 | 0.0491 | – | 0.0462 | 0.0577 | 0.0484 | – | – | 0.0435 | 0.0573 | 0.0584 | – | 0.0636 | 0.0549 | 0.0549 | 0.0503
4 | R102A | 0.0646 | 0.0859 | 0.0456 | – | 0.0626 | 0.055 | 0.0314 | 0.061 | 0.053 | 0.0637 | 0.0338 | 0.0589 | 0.0465 | 0.0641 | 0.0717 | 0.0506 | – | 0.0557 | 0.0635 | –
5 | R102T | 0.0545 | 0.0487 | 0.0639 | 0.0549 | 0.0478 | – | 0.0488 | 0.0547 | 0.0478 | 0.0629 | – | – | 0.0808 | 0.0594 | 0.0596 | 0.0434 | – | – | – | 0.088
6 | K98I | 0.0661 | 0.115 | – | 0.0709 | 0.0968 | 0.0804 | 0.0574 | – | 0.0576 | 0.0586 | 0.0608 | 0.0617 | 0.0553 | 0.101 | 0.0395 | 0.0615 | 0.067 | 0.0751 | 0.0756 | 0.0763
7 | T71C | 0.112 | 0.114 | 0.0699 | – | 0.0791 | 0.0729 | 0.0535 | 0.0575 | 0.0614 | 0.0795 | – | 0.0663 | 0.0532 | 0.0985 | 0.0575 | – | 0.0574 | – | 0.0501 | 0.0824
8 | T71L | 0.0878 | 0.148 | – | – | – | – | 0.072 | – | 0.06 | – | 0.078 | – | 0.0671 | 0.107 | 0.0663 | 0.0495 | 0.0631 | – | – | 0.0745
9 | E103L | 0.0866 | – | – | 0.0853 | – | – | 0.0927 | – | 0.0819 | 0.0969 | 0.0669 | – | 0.0839 | 0.102 | 0.0689 | 0.0601 | 0.0726 | – | – | 0.085
10 | E103A | 0.107 | 0.123 | – | – | 0.0995 | 0.0779 | 0.0497 | 0.0679 | 0.0628 | – | – | – | 0.0621 | 0.11 | – | 0.0603 | – | 0.0776 | – | 0.091
11 | E103C | 0.123 | 0.13 | – | – | 0.102 | 0.0781 | 0.0498 | 0.0599 | 0.0671 | 0.0822 | 0.0689 | – | 0.0728 | 0.112 | 0.0673 | – | 0.0692 | – | – | 0.0891
12 | Q118T | 0.106 | 0.134 | 0.0591 | – | – | 0.0699 | 0.0534 | – | 0.0549 | – | – | 0.0599 | 0.059 | 0.102 | 0.0593 | – | – | 0.107 | – | –
13 | T114F | 0.109 | 0.119 | 0.0766 | 0.0874 | 0.0998 | 0.0774 | 0.0568 | – | – | 0.0914 | – | 0.0726 | 0.0493 | 0.101 | 0.0741 | – | 0.0766 | 0.0786 | – | 0.0762
14 | T115N | 0.113 | 0.0518 | – | 0.0632 | 0.0913 | – | 0.0555 | 0.0819 | 0.0458 | 0.0793 | – | – | 0.024 | 0.0898 | 0.0731 | – | 0.0674 | 0.0786 | – | –
15 | L77N | 0.0682 | 0.0685 | 0.0553 | – | 0.077 | 0.0628 | 0.0532 | 0.0646 | 0.0533 | – | – | 0.0655 | 0.0588 | 0.0673 | 0.0577 | 0.0948 | 0.0587 | 0.0655 | 0.0614 | 0.0609
16 | D82Y | 0.0464 | 0.0642 | – | – | – | – | – | – | 0.0544 | 0.06 | – | – | 0.0549 | 0.0556 | 0.0558 | 0.0395 | – | – | – | 0.0492
17 | V67D | 0.0595 | 0.0787 | 0.0563 | – | – | 0.0455 | 0.0393 | 0.0517 | 0.0377 | – | 0.0633 | – | 0.054 | 0.0598 | 0.0556 | 0.0582 | 0.0417 | 0.0434 | – | 0.0517
18 | V67T | 0.082 | 0.08 | – | – | 0.0612 | – | 0.0494 | 0.0693 | 0.0481 | – | 0.0553 | – | 0.06 | 0.0855 | 0.0705 | – | – | 0.0555 | – | –
19 | N116Q | 0.107 | 0.0983 | 0.0835 | – | – | 0.101 | 0.0559 | 0.0728 | 0.0618 | 0.0822 | 0.0604 | – | 0.0581 | 0.105 | 0.0545 | – | 0.0659 | – | 0.0924 | –
20 | V78S | 0.0751 | 0.075 | – | – | 0.0734 | 0.0568 | 0.055 | 0.0604 | 0.0593 | 0.0643 | 0.0517 | – | 0.0557 | 0.0742 | 0.0489 | 0.047 | 0.07 | 0.0595 | – | 0.0674
21 | V78C | 0.0891 | 0.109 | – | 0.0586 | – | 0.0707 | 0.0645 | 0.0644 | 0.0617 | 0.081 | 0.0522 | – | 0.0926 | 0.0987 | 0.0645 | 0.0533 | 0.0513 | 0.0739 | 0.0729 | 0.0726
22 | G63Q | 0.0932 | 0.112 | – | 0.0966 | 0.0914 | 0.0781 | 0.0525 | 0.0623 | 0.0654 | 0.105 | – | – | 0.0439 | 0.0986 | 0.0554 | – | 0.0658 | 0.0538 | – | 0.0618
23 | F117H | 0.0985 | 0.117 | – | – | 0.107 | 0.078 | 0.0628 | 0.0564 | 0.0657 | 0.086 | – | – | 0.0573 | 0.107 | 0.0596 | 0.062 | 0.045 | – | – | 0.076
24 | Q74V | 0.0659 | 0.0729 | 0.0546 | – | 0.0737 | 0.063 | – | 0.0514 | 0.0682 | 0.0771 | 0.0532 | – | 0.059 | 0.0714 | 0.0624 | 0.0599 | 0.0593 | 0.0664 | 0.0624 | 0.0569
